According to PubChem BioAssay AID894 (National Center for Advancing Translational Sciences (NCATS), 2007):
Screen size: about 150,000 compounds; about 6,500 (4.3%) were called active. Inconclusive results, whose numbers are uncertain, are shown with a selection of clear calls. Calls come from the whole dose curve; as a rule, active = well fitted inhibition curve with a large enough effect (not every such curve was filed as active); inconclusive = small, poorly fitted or top-dose-only effect, or another doubt; inactive = no such curve, though single readings can be large or run the other way. No potency is given beside an inconclusive call; the fits are too rough.

Molecular target: 15-hydroxyprostaglandin dehydrogenase [NAD(+)] (Homo sapiens) (UniProt P15428)
Sequence of UniProt P15428 (P15428 whole entry, looked up): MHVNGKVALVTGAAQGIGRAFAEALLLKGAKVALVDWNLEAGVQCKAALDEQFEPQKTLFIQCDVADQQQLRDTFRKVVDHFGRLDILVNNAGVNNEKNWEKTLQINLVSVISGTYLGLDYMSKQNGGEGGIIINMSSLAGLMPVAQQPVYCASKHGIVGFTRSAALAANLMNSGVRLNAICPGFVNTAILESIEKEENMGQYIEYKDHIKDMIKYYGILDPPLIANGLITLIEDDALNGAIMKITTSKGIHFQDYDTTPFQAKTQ
Assay: qHTS Assay for Inhibitors of HPGD (15-Hydroxyprostaglandin Dehydrogenase)
Conditions: purified HPGD, NADH fluorescence kinetic, PGE2 substrate; activity change, negative = inhibition: hits give low values
Procedure, shortened: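 20 nM HPGD preincubated 15 min at room temperature with compound in 50 mM Tris-HCl pH 8, 0.01% Tween 20. Started with 1 mM NAD+ and 30 uM prostaglandin E2; NADH fluorescence (360/450 nm) read 5 times over 30-s intervals, last minus first.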
% is set by controls: 0 for no effect and ±100 for the full control effect; potency is the fitted concentration of half-maximal effect; tags give direction and shape of the fitted curve.

Row | SMILES | activity change, negative = inhibition | Potency
1 | COc1ccc(C2CC(c3ccc(Br)cc3)=NN2C(=O)c2cccnc2)cc1 (stereo unspecified) | inactive: -12.4% | –
2 | Cc1oc(-c2ccccc2)cc1C(=O)NC(Cc1c[nH]c2ccccc12)C(=O)O (stereo unspecified) | – | inconclusive [inhibitor, single point]
3 | Cc1cccc(NC(=O)c2cc(NC(=O)c3ccco3)ccc2N2CCCCC2)c1 | – | inconclusive [inhibitor, partial curve]
4 | COCCn1c(=O)c(-c2cn(C)c3ccccc23)nc2cncnc21 | inactive: -10.7% | –
5 | CCOC(=O)c1[nH]c2cc3c(cc2c1NC(=O)CN1CCC2(CC1)OCCO2)OCO3 | – | inconclusive [inhibitor, partial curve]
6 | COc1ccc2nc(/C=N/NC(=O)[C@H](CCSC)NC(=O)OC(C)(C)C)ccc2c1 | – | inconclusive [inhibitor, partial curve]
7 | CCCCCCCCN1C(=O)C(O)=C(C(C)=O)C1c1ccccn1 (stereo unspecified) | inactive: -7.08% | –
8 | CCc1nnc(NS(=O)(=O)c2ccc(NC(=S)NC(=O)c3ccc(OC)cc3)cc2)s1 | – | inconclusive [inhibitor, single point]
9 | CCOc1cc(/C=C2\C(=O)N(CCc3ccc(OC)c(OC)c3)C(C)=C2C(=O)OC)ccc1O | – | inconclusive [inhibitor, single point]
10 | O=C(c1ccc(F)cc1)C1CCN(C(=O)N2CCOCC2)CC1 | inactive: -10.2% | –
11 | C[C@@H]1CC[C@H]2[C@H](C)[C@H]3CC[C@H]4C5[C@@H](O)CC6=CC(=O)CC[C@]6(C)[C@H]5C[C@H]4C3C(=O)N2C1 (stereo partly specified) | inactive: -1.92% | –
12 | CCN(CC)CCCC(C)NC(=O)c1ccc(-n2c(=O)c(=O)[nH]c3ccccc32)cc1 (stereo unspecified) | inactive: -9.25% | –
13 | C=CCCC(=O)Nc1nc(C)c(-c2csc(Nc3ccc(Cl)cc3)n2)s1 | – | inconclusive [inhibitor, partial curve]
14 | Cc1ccc(CNC(=O)CSc2c3c(nc4ccc(Cl)cc24)CCCC3)o1 | inactive: -28.1% | –
15 | O=C(Cc1cccs1)NCCn1ccc2ccccc21 | – | inconclusive [inhibitor, partial curve]
16 | COc1ccc(OC)c(NC(=O)c2cc3ccccc3o2)c1 | – | inconclusive [inhibitor, single point]
17 | Cn1nc(SCC(=O)O)sc1=S | – | active: 14.1 µM
18 | CC1CCN(c2nc(-c3ccccc3)cc(C(F)(F)F)n2)CC1 | – | inconclusive [inhibitor, single point]
19 | CSc1nc(N(C)CCO)c2sc3nc(-c4ccco4)c4c(c3c2n1)CCC4 | – | inconclusive [inhibitor, partial curve]
20 | O=c1oc2cc(O)c(Cl)cc2c2ccccc12 | inactive: -29.7% | –
21 | O=C(CC1CCCC1)OCn1nnc2ccccc2c1=O | – | inconclusive [inhibitor, single point]
22 | COc1ccc(OC)c(Nc2nc(-c3sc(NC(=O)c4ccccc4)nc3C)cs2)c1 | inactive: -26.6% | –
23 | COc1ccc(S(=O)(=O)/N=C2/C=CC(=O)C(C)=C2C)cc1 | – | inconclusive [inhibitor, single point]

Row | SMILES | activity change, negative = inhibition | Potency
24 | Nc1c(C(=O)Nc2ccc(F)cc2)sc2nc(-c3ccco3)ccc12 | – | inconclusive [inhibitor, partial curve]
25 | O=C(CNc1ccc2ccccc2c1)N/N=C/c1cc2ccccc2nc1Cl | inactive: -12.7% | –
26 | COC(=O)C1=CN(C2CC2)C=C(C(=O)OC)C1c1ccccc1OC | – | inconclusive [inhibitor, partial curve]
27 | N#CC1=C(N)OC2=C(CC/C2=C\c2ccccc2)C1c1ccccc1 (stereo unspecified) | – | inconclusive [inhibitor, partial curve]
28 | O=C(CCc1ccc(S(=O)(=O)N2CCOCC2)cc1)OCc1nc2ccccc2s1 | inactive: -11% | –
29 | Cc1nc(N2N=C3/C(=C/c4ccc(F)cc4)CCCC3C2c2ccc(F)cc2)sc1C(=O)N(C)C (stereo unspecified) | – | inconclusive [inhibitor, single point]
30 | COc1cc(-c2noc(-c3cccc(Cl)c3)n2)cc(OC)c1OC | inactive: -12.7% | –
31 | O=C(O)c1ccc(CNc2ccccc2C(=O)O)cc1 | – | inconclusive [inhibitor, partial curve]
32 | Cc1ccc(CNc2nc(-c3cccs3)nc3ccccc23)cc1 | – | inconclusive [inhibitor, single point]
33 | CCC(=O)Oc1cccc(C(=O)Nc2ccc(-c3nnc(-c4ccco4)o3)cc2)c1 | – | inconclusive [inhibitor, partial curve]
34 | O=C(CSc1nc2cc([N+](=O)[O-])ccc2n1-c1ccc(F)cc1)NC1CCS(=O)(=O)C1 (stereo unspecified) | inactive: -9.03% | –
35 | Cc1onc(-c2c(Cl)cccc2Cl)c1C(=O)Nc1ccc2c(c1)OCO2 | inactive: -9.53% | –
36 | O=c1oc2ccccc2c(NCc2ccccc2F)c1[N+](=O)[O-] | – | active: 15.8 µM
37 | Cc1ccc(CNCC2CCCO2)s1 (stereo unspecified) | inactive: -15.2% | –
38 | Cc1cc(=O)[nH]c(N/N=C/c2sccc2C)n1 | – | active: 39.8 µM
39 | COc1cc(/C=C(/C#N)c2nc3ccccc3[nH]2)ccc1OC(=O)c1ccco1 | – | inconclusive [inhibitor, partial curve]
40 | CC(=O)N1CCC[C@@]2(CCN(Cc3cc(C(F)(F)F)cc(C(F)(F)F)c3)C2)C1 | inactive: -3.74% | –
41 | COC(=O)c1sccc1NC(=O)c1ccc2c(c1)OCO2 | – | inconclusive [inhibitor, partial curve]
42 | CCCOc1ccc(-c2nnn(CC(=O)N3CCC(C)CC3)n2)cc1 | inactive: 2.1% | –
43 | N#CC1=C2SCN(Cc3ccccc3)CN2C(=O)CC1c1cccs1 (stereo unspecified) | – | active: 20 µM
44 | Cc1ccc(OCC(=O)Nc2ccc(N(C)C)cc2)cc1 | inactive: -7.25% | –
45 | COc1cc2c(cc1NC(=O)COC(=O)CNS(=O)(=O)c1ccc(C)cc1)oc1ccccc12 | – | inconclusive [inhibitor, partial curve]
46 | O=C(CSc1nnc(COc2ccccc2F)n1-c1ccccc1)NC1CCS(=O)(=O)C1 (stereo unspecified) | inactive: -0.529% | –
